# Measured values: the supplement of paper PMC3334620
# The full ranking holds about 33,000 sequences; the median of “E-score (-0.5 to 0.5)” is about -0.012, and the highest 2% start at about 0.29. The list shows a part of the results.
# Biological target: T1, Ybr033w (UniProt P38073)
# T1 sequence: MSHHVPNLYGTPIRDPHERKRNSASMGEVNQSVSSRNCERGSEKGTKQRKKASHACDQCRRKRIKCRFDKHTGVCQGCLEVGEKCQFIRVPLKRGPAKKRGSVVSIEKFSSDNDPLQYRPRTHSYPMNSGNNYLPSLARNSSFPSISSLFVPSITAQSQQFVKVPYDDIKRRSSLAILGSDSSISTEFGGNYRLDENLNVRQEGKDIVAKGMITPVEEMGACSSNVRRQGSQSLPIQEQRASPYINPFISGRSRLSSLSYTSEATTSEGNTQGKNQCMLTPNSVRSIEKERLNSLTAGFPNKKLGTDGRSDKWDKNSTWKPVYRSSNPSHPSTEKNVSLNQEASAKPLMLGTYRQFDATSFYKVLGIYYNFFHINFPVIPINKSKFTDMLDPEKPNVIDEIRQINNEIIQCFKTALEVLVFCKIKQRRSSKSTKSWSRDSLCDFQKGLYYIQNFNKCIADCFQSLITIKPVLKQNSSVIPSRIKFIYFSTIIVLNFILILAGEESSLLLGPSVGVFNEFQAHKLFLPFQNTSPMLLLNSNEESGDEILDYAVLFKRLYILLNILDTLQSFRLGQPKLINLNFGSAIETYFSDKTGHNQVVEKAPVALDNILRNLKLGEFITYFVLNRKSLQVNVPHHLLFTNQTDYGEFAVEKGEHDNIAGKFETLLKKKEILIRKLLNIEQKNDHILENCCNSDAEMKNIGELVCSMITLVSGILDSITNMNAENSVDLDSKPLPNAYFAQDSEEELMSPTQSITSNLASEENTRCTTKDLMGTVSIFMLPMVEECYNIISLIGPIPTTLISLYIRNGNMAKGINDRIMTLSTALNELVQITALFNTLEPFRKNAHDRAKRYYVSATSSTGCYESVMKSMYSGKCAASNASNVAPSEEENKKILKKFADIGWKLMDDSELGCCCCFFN
# Experiment: PBM E-score (8-mer binding enrichment) (E-score (-0.5 to 0.5)); higher = stronger / more preferred TF binding; most listed sequences are background and not binding sites
# Details: protein concentration: 200 nM; construct: GST-full length
# How it was run: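 Full-length yeast transcription factors or their DNA-binding domains, GST-tagged and expressed with PURExpress, were applied at about 100-200 nM to universal all-10-mer Agilent arrays. These arrays had been made double-stranded by primer extension on fresh or once-stripped slides. Detection used fluorescent anti-GST, normalisation used masliner, and E-scores for ungapped eight-base words pooled with reverse complements came from the Universal PBM Analysis Suite.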
row,Sequence,PBM E-score
1,CACTGCCG,0.00024
2,ATCTCTAC,0.226
3,AAATTAAG,0.144
4,AGTTATTA,0.173
5,CCATGCGG,-0.0979
6,CTATAACC,-0.0852
7,CTTCCTGC,-0.301
8,CAGTGCTA,-0.104
9,GTATAGGA,0.0159
10,AAGTTCCC,-0.0322
11,GCCCCAGC,-0.2
12,AGGACTTG,-0.13
13,GCGAAGGA,-0.0837
14,AAAGTCTA,-0.00319
15,ATTCCACA,0.335
16,ACTGACGC,-0.213
17,GAGAACAA,0.214
18,CACCTTCC,-0.0633
19,TGCTGCCA,-0.135
20,CCCATCAA,0.101
21,ATTGGGCA,-0.0994
22,AGTTTCCG,0.199
23,CAGTCTAG,-0.137
24,ACGGCCCA,-0.272
25,ATCGCTGG,-0.191

row,Sequence,PBM E-score
1,CTAGGTCA,-0.147
2,TGAATCAA,0.242
3,ATCATCTC,0.163
4,ACGTAGAA,0.0511
5,AAACACCA,-0.00105
6,GTTCAACA,0.113
7,ACGTCGCT,-0.158
8,AATCGGCG,-0.1
9,TAAGGTCA,0.028
10,CCATAAGG,-0.18
11,CACTGCAA,0.125
12,CGCCCGGA,-0.0607
13,GGTTCCAC,0.0211
14,ACACACAA,0.228
15,AGCTGAGG,-0.117
16,CGAGGACC,0.00778
17,CCGGTTCG,-0.102
18,CGAGCGCC,-0.195
19,ACCCCTAA,-0.153
20,ACAAACGT,0.106
21,ACAAAGGT,0.139
22,CCAACCGA,0.0191
23,AGGCCCCA,-0.233
24,GATGCAGA,-0.00396
25,CCTGAACG,-0.172

row,Sequence,PBM E-score
1,CTAACGAG,-0.0146
2,GGATCCTA,-0.162
3,ATTTCCAA,0.104
4,CCATCCAG,-0.135
5,CTCGCGGA,-0.166
6,AAATAGCA,0.106
7,GACATTGA,0.0812
8,AGCTTTAT,-0.065
9,CACTAGAC,-0.105
10,AGCTCACA,-0.0973
11,ACTGCTAA,-0.124
12,ATAGTGCA,0.0588
13,ACGAGCGT,-0.148
14,CGTCTGGA,-0.288
15,AGCCATGC,-0.0872
16,AACTTAGA,0.0362
17,AGATGGGG,-0.243
18,AAGTGGAG,0.215
19,AATACAAT,0.107
20,AACGGTGA,-0.0975
21,ATCCGTTC,0.0406
22,CACGACGA,-0.103
23,CAAATTAA,0.212
24,ATGAGATC,0.107
25,CAAAACGA,0.0643

row,Sequence,PBM E-score
1,GAGGATCC,-0.076
2,GTCTCGTA,-0.0206
3,ACACATGC,-0.0705
4,AATCATGC,-0.0625
5,CTCAAGCA,-0.0241
6,ATCACCTA,-0.0627
7,TAAACAGA,0.142
8,CATTCTGC,0.09
9,AGGCACCA,0.0136
10,AATCGATA,0.283
11,ACCGTTAT,-0.128
12,ACTCATCA,0.0418
13,CCTCCAAG,-0.176
14,ATTAACAA,0.382
15,GAACACCA,-0.0397
16,AGAGCCCG,-0.213
17,AATAGTTA,0.225
18,ACGCCTAC,-0.109
19,GAATGACC,-0.0971
20,CCTTCCGC,-0.263
21,ACCCATCC,-0.181
22,CATTAGTA,0.204
23,AAGTGGGG,-0.146
24,GAGCAATA,0.0978
25,AGCACTTC,0.0586

row,Sequence,PBM E-score
1,TCGATAGA,0.0992
2,TCATCAAA,0.0145
3,TCGTTAAA,0.104
4,CACATCTC,0.0841
5,AGGATAAG,-0.0801
6,CACCTGAG,-0.0721
7,CGAATATC,0.173
8,GACCAGGA,-0.0704
9,TGGGTGAA,0.15
10,GCGGCTAA,-0.0371
11,ACAGGAAT,0.209
12,CGATCGAC,0.0174
13,ATTCAATA,0.266
14,TAGCATGA,0.111
15,TATTCTAA,0.262
16,TTCATCAA,0.184
17,TTCGTCAA,0.0948
18,CCCCATGC,-0.226
19,AAGAACGT,0.135
20,CTACTATC,0.226
21,ACGGGCAA,-0.22
22,CAGACCCG,-0.0987
23,ATCAGTAC,-0.0454
24,GTCTAAAC,0.179
25,CAATTCAG,-0.169

row,Sequence,PBM E-score
1,AAGCCAAC,-0.00357
2,AATTATAG,0.284
3,GCGTATGA,0.0532
4,AACCAATG,0.206
5,ATCAACAT,0.238
6,CTAGCGAG,-0.177
7,AGGTAAGA,0.034
8,ATTTTCAC,0.226
9,TGCCTCCA,-0.217
10,CAGCGTGC,-0.0882
11,CCAGTCCC,-0.204
12,CTAGAGAC,-0.0751
13,AACTACCG,0.0353
14,CTCGGAAG,-0.0159
15,GACCTCTC,0.0317
16,GATAAACC,0.236
17,GGGGTTGA,-0.0394
18,ACATGTGC,-0.147
19,CGGGTCGA,-0.175
20,CCTACCGA,-0.1
21,AAAGGGTG,-0.082
22,GATGCTGC,-0.0182
23,ACGGATTG,-0.00563
24,CGTTGGCA,-0.13
25,AACATCGT,0.00721

row,Sequence,PBM E-score
1,ACCGTGTG,-0.114
2,GAGGTCTA,-0.0889
3,AATTACTC,0.328
4,CGCAATCC,0.00791
5,GTTAGGCA,-0.00649
6,ACTGTCAG,-0.0137
7,ACCCCTCT,-0.199
8,AGCTAGAG,-0.0778
9,CGGCTTTC,-0.147
10,ACTCCTTC,-0.074
11,CCAAATAG,0.141
12,CTGAAAAC,0.0496
13,CGGTGTAC,-0.192
14,CATAAATA,0.169
15,GAGGTATC,-0.186
16,TCGAACGA,-0.133
17,ATACTGAC,0.166
18,AACGAGCC,-0.148
19,AGGACTCC,-0.193
20,AGCTTGCC,-0.231
21,CGCCCCAC,-0.171
22,AGTATATA,0.389
